Laboratory results taken from the supplement of paper PMC4967469.
A lower IC50 marks a more sensitive line; a fit beyond the top or the lowest dose is shown as a bound at that dose. The AUC spans the tested range (256-fold, ending at the top dose) of the same fit: 1 means no effect, lower means more sensitive. For some of these results: An inferred top dose comes from the curve model; the source does not state it.

Experiments:
Assay in all cases: Viability of human cancer cell lines after 72 h of drug (GDSC screen)
CX-5461 = compound: Cc1cnc(CNC(=O)c2c(=O)c3ccc(N4CCCN(C)CC4)nc3n3c2sc2ccccc23)cn1 [CX-5461]; conditions: top dose 10.24 µM; top dose inferred
Description: (§1)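 Human cancer cell lines in 384-well plates, medium with 10% serum, drug for 72 h over a 256-fold dose range (nine 2-fold or five 4-fold steps up to the top dose). Adherent lines were fixed and stained with the nucleic acid dye Syto60, suspension lines read with resazurin; signal relative to control wells, capped at 0 and 100%. One two-parameter sigmoid per drug and line, fitted in a mixed model over all curves with the slope shared within a line.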

CP724714 = compound: COCC(=O)NC/C=C/c1ccc2ncnc(Nc3ccc(Oc4ccc(C)nc4)c(C)c3)c2c1 [CP724714]; conditions: top dose 10.24 µM; top dose inferred
Description: as §1

Paclitaxel = compound: CC(=O)O[C@H]1C(=O)[C@@]2(C)[C@H]([C@H](OC(=O)c3ccccc3)[C@]3(O)C[C@H](OC(=O)[C@H](O)[C@@H](NC(=O)c4ccccc4)c4ccccc4)C(C)=C1C3(C)C)[C@]1(OC(C)=O)CO[C@@H]1C[C@@H]2O [Paclitaxel]; conditions: top dose 0.1024 µM
Description: as §1

STF-62247 = compound: Cc1cccc(Nc2nc(-c3ccncc3)cs2)c1 [STF-62247]; conditions: top dose 10.24 µM; top dose inferred
Description: as §1

Obatoclax mesylate = compound: COC1=CC(c2cc3ccccc3[nH]2)=N/C1=C\c1[nH]c(C)cc1C [Obatoclax mesylate]; conditions: top dose 16 µM
Description: as §1

Bortezomib = compound: CC(C)C[C@H](NC(=O)[C@H](Cc1ccccc1)NC(=O)c1cnccn1)B(O)O [Bortezomib]; conditions: top dose 0.02 µM
Description: as §1

KOPN-8 (B-cell leukaemia, suspension)
AUC (CX-5461): 0.556
IC50 (CX-5461): 891 nM
AUC (CP724714): 0.971
IC50 (CP724714): > 10200 nM
AUC (Paclitaxel): 0.554
IC50 (Paclitaxel): 8.76 nM
AUC (STF-62247): 0.967
IC50 (STF-62247): > 10200 nM
AUC (Obatoclax mesylate): 0.049
IC50 (Obatoclax mesylate): < 62.5 nM

L-363 (myeloma, suspension)
AUC (CX-5461): 0.908
IC50 (CX-5461): > 10200 nM
AUC (CP724714): 0.98
IC50 (CP724714): > 10200 nM
AUC (Paclitaxel): 0.56
IC50 (Paclitaxel): 9.09 nM
AUC (STF-62247): 0.911
IC50 (STF-62247): > 10200 nM
AUC (Obatoclax mesylate): 0.243
IC50 (Obatoclax mesylate): 206 nM

LOXIMVI (melanoma, semi-adherent)
AUC (CX-5461): 0.968
IC50 (CX-5461): > 10200 nM
AUC (CP724714): 0.989
IC50 (CP724714): > 10200 nM
AUC (Paclitaxel): 0.805
IC50 (Paclitaxel): 45 nM
AUC (STF-62247): 0.988
IC50 (STF-62247): > 10200 nM
AUC (Obatoclax mesylate): 0.175
IC50 (Obatoclax mesylate): 121 nM

LP-1 (myeloma, suspension)
AUC (CX-5461): 0.99
IC50 (CX-5461): > 10200 nM
AUC (CP724714): 0.939
IC50 (CP724714): > 10200 nM
AUC (Paclitaxel): 0.903
IC50 (Paclitaxel): 93.9 nM
AUC (STF-62247): 0.929
IC50 (STF-62247): > 10200 nM
AUC (Obatoclax mesylate): 0.276
IC50 (Obatoclax mesylate): 264 nM

LXF-289 (lung adenocarcinoma, adherent)
AUC (CX-5461): 0.907
IC50 (CX-5461): > 10200 nM
AUC (CP724714): 0.978
IC50 (CP724714): > 10200 nM
AUC (Paclitaxel): 0.352
IC50 (Paclitaxel): 2.51 nM
AUC (STF-62247): 0.968
IC50 (STF-62247): > 10200 nM
AUC (Obatoclax mesylate): 0.31
IC50 (Obatoclax mesylate): 298 nM

ML-2 (acute myeloid leukaemia, suspension)
AUC (CX-5461): 0.883
IC50 (CX-5461): 8870 nM
AUC (CP724714): 0.982
IC50 (CP724714): > 10200 nM
AUC (Paclitaxel): 0.593
IC50 (Paclitaxel): 11.2 nM
AUC (STF-62247): 0.894
IC50 (STF-62247): 9900 nM
AUC (Obatoclax mesylate): 0.326
IC50 (Obatoclax mesylate): 349 nM

MOLM-13 (acute myeloid leukaemia, suspension)
AUC (CX-5461): 0.656
IC50 (CX-5461): 1680 nM
AUC (CP724714): 0.962
IC50 (CP724714): > 10200 nM
AUC (Paclitaxel): 0.497
IC50 (Paclitaxel): 6.29 nM
AUC (STF-62247): 0.849
IC50 (STF-62247): 6940 nM
AUC (Obatoclax mesylate): 0.214
IC50 (Obatoclax mesylate): 155 nM

MOLP-8 (myeloma, suspension)
AUC (CX-5461): 0.569
IC50 (CX-5461): 983 nM
AUC (CP724714): 0.978
IC50 (CP724714): > 10200 nM
AUC (Paclitaxel): 0.647
IC50 (Paclitaxel): 16.1 nM
AUC (STF-62247): 0.987
IC50 (STF-62247): > 10200 nM
AUC (Obatoclax mesylate): 0.152
IC50 (Obatoclax mesylate): 89 nM

MV-4-11 (leukaemia, suspension)
AUC (CX-5461): 0.442
IC50 (CX-5461): 457 nM
AUC (CP724714): 0.958
IC50 (CP724714): > 10200 nM
AUC (Paclitaxel): 0.459
IC50 (Paclitaxel): 5.07 nM
AUC (STF-62247): 0.958
IC50 (STF-62247): > 10200 nM
AUC (Obatoclax mesylate): 0.21
IC50 (Obatoclax mesylate): 174 nM

NCI-H226 (lung squamous cell carcinoma, adherent)
AUC (CX-5461): 0.81
IC50 (CX-5461): 5750 nM
AUC (CP724714): 0.978
IC50 (CP724714): > 10200 nM
AUC (Paclitaxel): 0.95
IC50 (Paclitaxel): > 102 nM
AUC (STF-62247): 0.919
IC50 (STF-62247): > 10200 nM
AUC (Obatoclax mesylate): 0.142
IC50 (Obatoclax mesylate): 70.4 nM

NH-12 (neuroblastoma, adherent)
AUC (CX-5461): 0.35
IC50 (CX-5461): 233 nM
AUC (CP724714): 0.985
IC50 (CP724714): > 10200 nM
AUC (Paclitaxel): 0.983
IC50 (Paclitaxel): > 102 nM
AUC (STF-62247): 0.979
IC50 (STF-62247): > 10200 nM
AUC (Obatoclax mesylate): 0.422
IC50 (Obatoclax mesylate): 594 nM

NOMO-1 (acute myeloid leukaemia, suspension)
AUC (CX-5461): 0.905
IC50 (CX-5461): > 10200 nM
AUC (CP724714): 0.976
IC50 (CP724714): > 10200 nM
AUC (Paclitaxel): 0.634
IC50 (Paclitaxel): 15.8 nM
AUC (STF-62247): 0.958
IC50 (STF-62247): > 10200 nM
AUC (Obatoclax mesylate): 0.437
IC50 (Obatoclax mesylate): 655 nM

OCI-AML2 (acute myeloid leukaemia, suspension)
AUC (CX-5461): 0.147
IC50 (CX-5461): 81.3 nM
AUC (CP724714): 0.975
IC50 (CP724714): > 10200 nM
AUC (Paclitaxel): 0.537
IC50 (Paclitaxel): 7.85 nM
AUC (STF-62247): 0.968
IC50 (STF-62247): > 10200 nM
AUC (Obatoclax mesylate): 0.097
IC50 (Obatoclax mesylate): 86.7 nM

OCI-AML3 (acute myeloid leukaemia, suspension)
AUC (CX-5461): 0.915
IC50 (CX-5461): > 10200 nM
AUC (CP724714): 0.969
IC50 (CP724714): > 10200 nM
AUC (Paclitaxel): 0.586
IC50 (Paclitaxel): 10.6 nM
AUC (STF-62247): 0.969
IC50 (STF-62247): > 10200 nM
AUC (Obatoclax mesylate): 0.575
IC50 (Obatoclax mesylate): 1550 nM

OPM-2 (myeloma, suspension)
AUC (CX-5461): 0.829
IC50 (CX-5461): 4840 nM
AUC (CP724714): 0.988
IC50 (CP724714): > 10200 nM
AUC (Paclitaxel): 0.798
IC50 (Paclitaxel): 38.8 nM
AUC (STF-62247): 0.97
IC50 (STF-62247): > 10200 nM
AUC (Obatoclax mesylate): 0.409
IC50 (Obatoclax mesylate): 591 nM

RL (B-cell lymphoma, suspension)
AUC (CX-5461): 0.872
IC50 (CX-5461): 8420 nM
AUC (CP724714): 0.974
IC50 (CP724714): > 10200 nM
AUC (Paclitaxel): 0.99
IC50 (Paclitaxel): > 102 nM
AUC (STF-62247): 0.935
IC50 (STF-62247): > 10200 nM
AUC (Obatoclax mesylate): 0.738
IC50 (Obatoclax mesylate): 4470 nM

RPMI-8226 (myeloma, suspension)
AUC (CX-5461): 0.731
IC50 (CX-5461): 2620 nM
AUC (CP724714): 0.987
IC50 (CP724714): > 10200 nM
AUC (Paclitaxel): 0.482
IC50 (Paclitaxel): 5.75 nM
AUC (STF-62247): 0.984
IC50 (STF-62247): > 10200 nM
AUC (Obatoclax mesylate): 0.39
IC50 (Obatoclax mesylate): 522 nM

SUP-B15 (lymphoblastic leukaemia, suspension)
AUC (CX-5461): 0.299
IC50 (CX-5461): 179 nM
AUC (CP724714): 0.976
IC50 (CP724714): > 10200 nM
AUC (Paclitaxel): 0.631
IC50 (Paclitaxel): 14.4 nM
AUC (STF-62247): 0.93
IC50 (STF-62247): > 10200 nM
AUC (Obatoclax mesylate): 0.051
IC50 (Obatoclax mesylate): < 62.5 nM

SW982 (soft tissue, adherent)
AUC (CX-5461): 0.798
IC50 (CX-5461): 5040 nM
AUC (CP724714): 0.985
IC50 (CP724714): > 10200 nM
AUC (Paclitaxel): 0.545
IC50 (Paclitaxel): 8.54 nM
AUC (STF-62247): 0.985
IC50 (STF-62247): > 10200 nM
AUC (Obatoclax mesylate): 0.38
IC50 (Obatoclax mesylate): 462 nM

TC-YIK (cervix, suspension)
AUC (Bortezomib): 0.987
IC50 (Bortezomib): > 20 nM

TE-11 (oesophagus, adherent)
AUC (CX-5461): 0.984
IC50 (CX-5461): > 10200 nM
AUC (CP724714): 0.982
IC50 (CP724714): > 10200 nM
AUC (Paclitaxel): 0.255
IC50 (Paclitaxel): 1.37 nM
AUC (STF-62247): 0.986
IC50 (STF-62247): > 10200 nM
AUC (Obatoclax mesylate): 0.321
IC50 (Obatoclax mesylate): 334 nM

TGBC24TKB (biliary tract, adherent)
AUC (CX-5461): 0.99
IC50 (CX-5461): > 10200 nM
AUC (CP724714): 0.959
IC50 (CP724714): > 10200 nM
AUC (Paclitaxel): 0.553
IC50 (Paclitaxel): 8.82 nM
AUC (STF-62247): 0.99
IC50 (STF-62247): > 10200 nM
AUC (Obatoclax mesylate): 0.674
IC50 (Obatoclax mesylate): 2940 nM

WSU-DLCL2 (B-cell lymphoma, suspension)
AUC (CX-5461): 0.993
IC50 (CX-5461): > 10200 nM
AUC (CP724714): 0.966
IC50 (CP724714): > 10200 nM
AUC (Paclitaxel): 0.885
IC50 (Paclitaxel): 79.2 nM
AUC (STF-62247): 0.993
IC50 (STF-62247): > 10200 nM
AUC (Obatoclax mesylate): 0.45
IC50 (Obatoclax mesylate): 748 nM

WSU-NHL (lymphoid neoplasm, suspension)
AUC (CX-5461): 0.938
IC50 (CX-5461): > 10200 nM
AUC (CP724714): 0.99
IC50 (CP724714): > 10200 nM
AUC (Paclitaxel): 0.99
IC50 (Paclitaxel): > 102 nM
AUC (STF-62247): 0.981
IC50 (STF-62247): > 10200 nM
AUC (Obatoclax mesylate): 0.1
IC50 (Obatoclax mesylate): < 62.5 nM
